The target of test [1] is HA-PRRT1 (proline-rich transmembrane protein 1, HA tag at the N-terminus) (mouse) (UniProt O35449). Nature of the test: co-IP; anti-HA antibody on lysates of co-transfected HEK293 cells; lysis buffer 150 mM NaCl, 20 mM Hepes pH 7.4, 0.1 mM EDTA, 2 mM CaCl2, 2 mM MgCl2, 1% Triton-X100; antibody overnight at 4°C, protein A or G agarose; immunoblot with anti-Flag / anti-HA.
Another test concerns the target T1, GFP-tagged PRRT2 (mouse) (UniProt E9PUL5).
T1 sequence: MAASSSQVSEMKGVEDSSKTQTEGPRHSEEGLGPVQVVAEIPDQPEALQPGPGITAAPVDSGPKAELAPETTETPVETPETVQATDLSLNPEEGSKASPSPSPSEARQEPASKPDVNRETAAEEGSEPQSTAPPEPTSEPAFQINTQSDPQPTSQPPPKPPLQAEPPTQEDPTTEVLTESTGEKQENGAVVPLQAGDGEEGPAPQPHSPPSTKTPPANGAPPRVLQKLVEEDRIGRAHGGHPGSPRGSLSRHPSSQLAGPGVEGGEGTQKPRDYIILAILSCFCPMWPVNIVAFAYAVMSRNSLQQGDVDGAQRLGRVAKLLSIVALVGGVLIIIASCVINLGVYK
Nature of the test: co-IP; lysates of HEK293 cells expressing GFP-tagged dispanin family members and AMPAR subunits (Supplementary Figure 1); antibody of the immunoprecipitation not given.

Protein sequences, listed by entry. Tags and fused reporters are not part of them. Residues count along the entry.
UniProt O35449: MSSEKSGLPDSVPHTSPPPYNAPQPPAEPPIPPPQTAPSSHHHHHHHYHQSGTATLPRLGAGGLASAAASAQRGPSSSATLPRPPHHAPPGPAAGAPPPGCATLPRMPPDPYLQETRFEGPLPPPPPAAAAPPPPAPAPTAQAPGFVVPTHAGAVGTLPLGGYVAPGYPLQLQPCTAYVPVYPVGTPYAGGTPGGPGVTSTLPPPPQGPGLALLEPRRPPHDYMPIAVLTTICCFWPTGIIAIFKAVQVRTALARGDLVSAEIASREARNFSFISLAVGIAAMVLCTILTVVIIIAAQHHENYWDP
UniProt A2ANU3: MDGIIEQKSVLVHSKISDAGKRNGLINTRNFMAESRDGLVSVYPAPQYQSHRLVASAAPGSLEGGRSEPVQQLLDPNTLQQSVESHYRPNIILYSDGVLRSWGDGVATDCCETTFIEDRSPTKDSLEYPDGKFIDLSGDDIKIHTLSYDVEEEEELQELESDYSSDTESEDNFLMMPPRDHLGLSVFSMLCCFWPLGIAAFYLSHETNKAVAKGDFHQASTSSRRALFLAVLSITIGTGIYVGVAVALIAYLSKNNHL
UniProt P19491, residues 22-883: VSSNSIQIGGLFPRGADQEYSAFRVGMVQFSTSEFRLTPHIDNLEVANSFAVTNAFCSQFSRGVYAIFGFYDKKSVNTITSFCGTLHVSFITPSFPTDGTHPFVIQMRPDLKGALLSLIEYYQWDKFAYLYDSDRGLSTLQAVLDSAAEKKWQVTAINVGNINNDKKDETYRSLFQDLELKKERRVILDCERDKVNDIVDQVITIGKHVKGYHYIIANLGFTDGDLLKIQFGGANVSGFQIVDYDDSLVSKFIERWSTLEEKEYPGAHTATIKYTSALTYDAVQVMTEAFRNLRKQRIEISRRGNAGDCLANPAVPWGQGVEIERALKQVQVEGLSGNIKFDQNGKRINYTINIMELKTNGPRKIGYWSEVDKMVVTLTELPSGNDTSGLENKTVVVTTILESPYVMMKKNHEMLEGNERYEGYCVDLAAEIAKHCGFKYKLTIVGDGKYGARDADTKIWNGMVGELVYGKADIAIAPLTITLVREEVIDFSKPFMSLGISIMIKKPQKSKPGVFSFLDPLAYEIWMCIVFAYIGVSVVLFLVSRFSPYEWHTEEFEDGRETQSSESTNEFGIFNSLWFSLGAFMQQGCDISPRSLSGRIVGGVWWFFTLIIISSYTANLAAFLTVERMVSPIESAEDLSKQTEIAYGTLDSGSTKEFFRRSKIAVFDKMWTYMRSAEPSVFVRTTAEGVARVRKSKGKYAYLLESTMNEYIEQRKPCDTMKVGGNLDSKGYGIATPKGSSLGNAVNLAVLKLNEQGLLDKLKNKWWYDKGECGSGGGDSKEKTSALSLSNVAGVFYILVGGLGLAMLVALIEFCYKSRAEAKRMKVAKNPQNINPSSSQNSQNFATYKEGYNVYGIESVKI
UniProt P19493, residues 21-902: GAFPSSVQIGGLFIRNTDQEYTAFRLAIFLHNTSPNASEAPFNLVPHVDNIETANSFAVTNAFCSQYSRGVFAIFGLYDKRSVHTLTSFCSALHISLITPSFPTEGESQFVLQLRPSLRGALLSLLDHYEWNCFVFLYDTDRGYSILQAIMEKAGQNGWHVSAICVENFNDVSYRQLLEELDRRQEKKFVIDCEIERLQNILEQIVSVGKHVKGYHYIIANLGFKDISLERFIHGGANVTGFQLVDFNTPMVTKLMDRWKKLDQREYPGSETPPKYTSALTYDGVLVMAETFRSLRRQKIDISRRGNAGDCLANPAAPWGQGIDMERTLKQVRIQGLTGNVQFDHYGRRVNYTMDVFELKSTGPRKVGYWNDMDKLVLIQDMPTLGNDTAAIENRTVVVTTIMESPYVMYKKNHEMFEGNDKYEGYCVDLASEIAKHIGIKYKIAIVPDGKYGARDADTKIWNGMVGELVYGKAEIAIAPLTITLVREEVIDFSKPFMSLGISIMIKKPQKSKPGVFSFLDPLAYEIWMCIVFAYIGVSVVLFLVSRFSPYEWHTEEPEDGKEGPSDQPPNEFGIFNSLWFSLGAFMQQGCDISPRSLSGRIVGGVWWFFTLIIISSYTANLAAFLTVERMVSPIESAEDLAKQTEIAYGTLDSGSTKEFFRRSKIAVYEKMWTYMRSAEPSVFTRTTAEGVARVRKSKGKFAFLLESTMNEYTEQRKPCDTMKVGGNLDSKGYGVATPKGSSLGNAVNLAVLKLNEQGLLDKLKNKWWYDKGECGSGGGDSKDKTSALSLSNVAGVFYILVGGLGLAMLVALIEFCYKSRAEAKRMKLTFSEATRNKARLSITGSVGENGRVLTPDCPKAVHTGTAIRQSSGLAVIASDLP
UniProt P19492, residues 23-888: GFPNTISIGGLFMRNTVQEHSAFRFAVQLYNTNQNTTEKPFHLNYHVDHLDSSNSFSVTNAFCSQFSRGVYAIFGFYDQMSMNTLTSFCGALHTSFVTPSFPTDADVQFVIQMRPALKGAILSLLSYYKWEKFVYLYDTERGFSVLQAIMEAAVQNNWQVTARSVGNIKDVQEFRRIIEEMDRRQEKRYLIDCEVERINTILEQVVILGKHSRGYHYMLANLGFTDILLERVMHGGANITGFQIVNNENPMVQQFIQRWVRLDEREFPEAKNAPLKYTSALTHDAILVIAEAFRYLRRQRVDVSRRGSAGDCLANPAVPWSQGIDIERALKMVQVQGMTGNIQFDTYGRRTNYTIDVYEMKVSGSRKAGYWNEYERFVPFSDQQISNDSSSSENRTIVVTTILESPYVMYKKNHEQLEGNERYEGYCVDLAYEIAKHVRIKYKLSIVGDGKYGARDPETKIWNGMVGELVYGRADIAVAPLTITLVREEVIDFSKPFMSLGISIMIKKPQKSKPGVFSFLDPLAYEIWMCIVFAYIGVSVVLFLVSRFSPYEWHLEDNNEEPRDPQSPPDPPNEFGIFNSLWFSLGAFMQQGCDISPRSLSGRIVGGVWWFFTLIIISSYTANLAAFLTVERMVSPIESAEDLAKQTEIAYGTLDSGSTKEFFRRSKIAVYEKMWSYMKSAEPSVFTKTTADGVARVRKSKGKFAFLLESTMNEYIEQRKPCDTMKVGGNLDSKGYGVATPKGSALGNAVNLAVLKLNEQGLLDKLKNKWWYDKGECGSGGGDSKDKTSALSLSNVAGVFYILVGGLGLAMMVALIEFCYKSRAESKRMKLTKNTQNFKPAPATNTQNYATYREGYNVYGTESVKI

Test [2] deals with GFP-PRRT1 full-length (FL) (mouse) (UniProt O35449). The description is as above.
For test [3], the target named is GFP-tagged DspC2 (SynDIG1) (mouse) (UniProt A2ANU3). Described as above.
The target of test [4] is T2, GFP-tagged DspB1 (Tucs5) (mouse) (UniProt Q8C838).
T2 sequence: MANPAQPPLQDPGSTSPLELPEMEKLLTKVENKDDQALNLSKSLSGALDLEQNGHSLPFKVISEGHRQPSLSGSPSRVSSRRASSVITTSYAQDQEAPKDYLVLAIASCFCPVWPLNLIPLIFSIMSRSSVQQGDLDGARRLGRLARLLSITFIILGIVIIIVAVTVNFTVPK
The description is as above.

Consider six substances from publication PMC8365426.

No constants are given. Whether binding was seen depends on the method and setting. Binding seen in cells or lysates may run through a third protein. Some binding calls cover weakened binding; strength is not graded here. For part of these data: Tags and fused reporters may be left off the sequences shown.

In the case of “Flag-Hippocalcin (Hlcn) (from UniProt P84075 1-193)”, the binding entry in test [1] is listed as “no binding”.
For the substance “Flag-GluA2 (from UniProt P19491 22-883) (receptor)”, the binding result with GFP-tagged PRRT2 (mouse) is recorded as “no binding”; in test [2], “binds”; in test [3], “binds”; in test [4] it was “no binding”; in test [1], “binds”.
On to “Flag-GluA4 (from UniProt P19493 21-902) (receptor)”, for which, in test [1], the binding result was “binds”.
On the same count and under the same terms, the same measure for “Flag-PP2B-Aα (protein phosphatase 2B catalytic subunit Aα) (from UniProt P63328 1-521) (enzyme)”: “binds”.
Turning to “Flag-GluA3 (from UniProt P19492 23-888) (receptor)”, the binding entry with GFP-tagged PRRT2 (mouse) is on record as “no binding”; in test [3] it was “binds”; in test [4], “no binding”.
On to “Flag-PP2B-Aβ (protein phosphatase 2B catalytic subunit Aβ) (from UniProt P48453 1-525) (enzyme)”, for which the binding entry in test [1] is recorded as “binds”.
